Reference: PubChem BioAssay AID1347073 (National Center for Advancing Translational Sciences (NCATS), 2019)
In all, about 45,000 compounds went through this assay and about 200 (0.44%) were called active. Inconclusive results (about 7%) are left out. Calls follow the shape of the dose curve; as a rule, active = well fitted activation curve with a large enough effect; inconclusive = small, poorly fitted or top-dose-only effect; inactive = no such curve, though single readings can be large or run the other way. This is one part of the list.

Test: qHTS of TDP-43 Inhibitors: NCGC Sytravon Library Screen; also: 0% is about no effect; nearly all actives have a fitted effect of over 55% in size
Conditions: yeast TDP-43 toxicity rescue, BacTiter-Glo growth, 24 h; series mostly up to 46.1 µM; growth rescue (activation): at the top concentration
Procedure, shortened: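 TDP-43-expressing yeast, pregrown in raffinose, seeded at OD600 0.02 in galactose medium with compound for 24 hr at 30 deg C. Growth read by BacTiter-Glo luminescence, so rescue of toxicity appears as activation.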

SMILES	growth rescue (activation)
CC1=C/C(=N\OS(=O)(=O)c2ccccc2)C(C(C)C)=CC1=O	inactive: -92.3%
C=C(C)C1CC=C(C)/C(=N/Nc2ccccc2[N+](=O)[O-])C1 (stereo unspecified)	inactive: 1.26%
Cc1c(NC(=O)Nc2cccc([N+](=O)[O-])c2)c(=O)n(-c2ccccc2)n1C	inactive: 5.37%
Cc1ccccc1OCCCCn1c(CO)nc2ccccc21	inactive: 1.18%
CN(Cc1ccccc1)C(=O)CC(=O)N(C)Cc1ccccc1	inactive: 9.55%
Cc1oc2cc(OCc3cnn(-c4ccccc4)c3)ccc2c(=O)c1Oc1ccccc1F	inactive: 17%
CC(=O)Nc1ccc(C2=NN(c3ccccc3)C(c3ccccc3)C2)cc1 (stereo unspecified)	inactive: -1.68%
Cc1nc2c(OCc3ccc(Cl)cc3)cccn2c1N(C)Cc1cccs1	inactive: 6.21%
Cc1cccc(C(=O)NCc2nnc(SCC(=O)Nc3nncs3)n2C)c1	inactive: -16.3%
CCOC(=O)N(C)c1c(CC)nc2c(OCC(=O)C(C)(C)C)cccn12	inactive: 13.3%
O=C(/C=C/c1ccccc1)NCc1ccco1	inactive: -2.46%
CC(=O)N1CCN(c2ccc(S(=O)(=O)N3CCOCC3)cc2[N+](=O)[O-])CC1	inactive: 7.81%
O=C(c1cc(COc2ccc(F)cc2Cl)on1)N1CC[C@@H]2CCCC[C@H]2C1	inactive: 10.3%
CC(C)NC(=O)c1ccc(S(=O)(=O)N(C)C)cc1	inactive: 6.54%
COc1ccc(C(=O)Nc2cccc(S(=O)(=O)N3CCCC3)c2)cc1S(=O)(=O)N1CCOCC1	inactive: 1.57%
O=[N+]([O-])c1ccc(Cl)c(CN2CCSCC2)c1	inactive: -18.4%
CCCS(=O)(=O)N1CCN(Cc2ccc([N+](=O)[O-])cc2)CC1	inactive: 20.6%
Cc1nc2cc(C(F)(F)F)ccc2n1C1CCN(CC(=O)N2CCCC2)CC1	inactive: -2.54%
COc1ccc(COC(=O)NNC(=O)c2ccccc2Cl)cc1	inactive: -19.9%
CC(C)c1ccc(/C=N/n2cnnc2)cc1	inactive: 2.1%
O=S(=O)(c1ccc(F)cc1)c1nc(-c2ccccc2)oc1N1CCOCC1	inactive: 18.9%
COc1ccc(C(NC(=O)c2cccc(F)c2)c2ccccc2)cc1 (stereo unspecified)	inactive: 8.13%

SMILES	growth rescue (activation)
CC(=O)N1CCN(Cc2nc(-c3cccc(Cl)c3)no2)CC1	inactive: -1.67%
COc1ccc(C(CNS(=O)(=O)c2cccc(F)c2)N2CCCC2)cc1 (stereo unspecified)	inactive: 13.1%
CCCCn1c(=O)[nH]c(=O)c2c1nc(-c1ccccc1OC(F)F)n2C	inactive: 11.5%
O=C(NCCc1ccccc1)c1ccc2c(c1)N(Cc1ccccc1)C(=O)c1ccccc1S2(=O)=O	inactive: 14%
Cc1nc2ccccc2c(=O)n1CCc1ccc(O)cc1	inactive: -8.51%
CCOc1ccc(NS(=O)(=O)c2cc(NC(=O)c3cccc(C)c3)ccc2Cl)cc1	inactive: -5.43%
CCC(C)N(C(=O)c1csnn1)C(C(=O)NCc1ccc(F)cc1)c1ccccc1 (stereo unspecified)	inactive: -6.25%
Cc1ccc(C(=O)CCNc2ccc(Cl)cc2)o1	inactive: 12.4%
Cc1ccc(/C=N/N2CCN(Cc3ccccc3)CC2)cc1	inactive: 2.78%
CN(C)c1ccc(/C=C2/SC(=O)N(CCN=C3NS(=O)(=O)c4ccccc43)C2=O)cc1	inactive: 9.41%
O=C(CN1CCN(Cc2ccc(F)cc2Cl)C1=O)NCc1cccs1	inactive: 10.3%
Fc1ccc(-c2n[nH]c(=S)n2/N=C/c2c[nH]c3ccccc23)cc1	inactive: 7.12%
CC(=O)c1ccccc1NC(=O)CCNC(=O)c1ccco1	inactive: 14.5%
COCCCNC(=O)CSC1=Nc2ccccc2C2=NC(Cc3c[nH]c4ccccc34)C(=O)N12 (stereo unspecified)	inactive: 10.1%
COc1ccc(NC(=O)CN(C)S(=O)(=O)c2ccc(Br)s2)cc1OC	inactive: -8.17%
CSc1ccccc1NS(=O)(=O)c1ccccc1	inactive: 2.73%
O=C(/C=C/c1ccccc1)OCC(=O)c1c[nH]c2ccccc12	inactive: 15.7%
Cc1ccc(NC(=O)CSc2n[nH]c(=O)n2C2CC2)cc1S(=O)(=O)N1CCOCC1	inactive: -2.12%
O=C(CN1C(=O)NC2(CCCC2)C1=O)N1CCN(S(=O)(=O)c2ccccc2)CC1	inactive: -3.3%
Cc1sc2ncnc(N3CCN(S(=O)(=O)c4ccc(Br)cc4)CC3)c2c1C	inactive: 10.7%
COc1ccc(C2(NC(C)=O)CCN(C(=O)c3ccco3)CC2)cc1	inactive: 36.7%
O=C(COc1ccc2c(c1)OCO2)Nc1nncs1	inactive: -7.71%

SMILES	growth rescue (activation)
C=CCC(c1ccccc1)N(C(C)=O)c1ccco1 (stereo unspecified)	inactive: -6.5%
Cc1cc(C)cc(N(CC(=O)NCC2CCCO2)C(=O)CCC(=O)Nc2nccs2)c1 (stereo unspecified)	inactive: -4.76%
COc1ccccc1OC(C)C(=O)N1CC(=O)Nc2ccccc21 (stereo unspecified)	inactive: 0.578%
CC(=O)Nc1ccc(NC(=O)c2ccc(OCc3c(C)noc3C)cc2)cc1	inactive: -6.14%
CC(=O)c1cccc(NC(=O)c2cc(-c3ccco3)on2)c1	inactive: 17.3%
CCCn1c(N)c(N(CCOC)C(=O)c2ccccc2F)c(=O)[nH]c1=O	inactive: -5.56%
Cc1ccc(S(=O)(=O)c2cc3c(=O)n4ccccc4nc3n(C3CCCC3)c2=N)cc1	inactive: -7.88%
CCOC(=O)C1(C)CCCN1C(=O)c1ccc(C(F)(F)F)nc1C (stereo unspecified)	inactive: 0.611%
CC(C)N1CCN(Cc2nc(-c3ccccc3)cs2)CC1CCO (stereo unspecified)	inactive: -5.17%
COC(=O)[C@H](CCSC)NC(=O)c1cc2c(cn1)[nH]c1ccccc12	inactive: -6.36%
O=C(/C=C/c1ccc([N+](=O)[O-])cc1)Nc1ncc([N+](=O)[O-])s1	inactive: -5.18%
N#Cc1ccc(C(=O)NNC(=O)c2cccc(S(=O)(=O)N3CCOCC3)c2)cc1	inactive: -28.7%
Cc1cc(C)cc(-n2c3ccc(NC(=S)NC4CCCCC4)cc3c(=O)n2C)c1	inactive: 8.75%
CCC(C)NC(=O)C1CCN(S(=O)(=O)c2cccc3nonc23)CC1 (stereo unspecified)	inactive: 9.65%
CC(=O)Nc1ccc(S(=O)(=O)NCCC(=O)Nc2ccc(C)c(F)c2)cc1	inactive: -14.3%
CCN(CC)C(=O)c1ccccc1NC(=O)c1ccccc1	inactive: -3.11%
CNC(=O)COC(=O)COc1ccc2c(C)cc(=O)oc2c1	inactive: 5.94%
O=C(COC(=O)c1cc(Cl)ccc1Cl)NCCN1C(=O)CSC1=O	inactive: 10.7%
COc1ccc(NC(=O)Cc2nnc(SCC(=O)Nc3nccs3)n2C)cc1	inactive: -6.23%
CCN(CC)c1ccc(C(=O)OCC(=O)Nc2sccc2C#N)cc1	inactive: 9.34%
CSCC[C@H](Nc1ncnc2sc(C)c(C)c12)C(=O)O	inactive: 8.12%
O=C(Cc1cccs1)N1CCN(c2cccc(Cl)c2)CC1	inactive: 3.82%

SMILES	growth rescue (activation)
COc1ccc(/C=C(/NC(=O)c2ccccc2)C(=O)N2CCOCC2)cc1OC	inactive: 17.8%
COc1cc(C)ccc1S(=O)(=O)NC(=O)Cn1nnc(COc2ccc3c(c2)CCCC3)c1C	inactive: 8.93%
Cc1ccc(S(=O)(=O)N(CC(=O)N=Nc2c(O)[nH]c3ccccc23)c2ccc(C)c(C)c2)cc1	inactive: 8.13%
CC(=O)Nc1ccc(N(CC(=O)NC2CCCC2)C(=O)CCC(=O)Nc2cc(C)on2)cc1	inactive: 11.4%
COCCNC(=O)Cn1c(=O)n(CCCCCC(=O)NCc2ccccc2Cl)c(=O)c2sccc21	inactive: 0.201%
CC(=O)Nc1ccc(NC(=O)COC(=O)COc2ccc3ccccc3c2)cc1	inactive: 5.46%
CC(C)(C)c1ccc(C(=O)NC(=S)NCc2cccnc2)cc1	inactive: 20.1%
O=C(c1ccc2ccccc2n1)N1CCN(Cc2c(F)cccc2Cl)CC1	inactive: 22.8%
CNc1c(NS(=O)(=O)c2ccc(Cl)cc2)c(=O)oc2ccccc12	inactive: 3.29%
Cc1cccc(NC(=S)N2CCN(Cc3ccccc3)CC2)c1C	inactive: 28.5%
COc1ccc(CN(C(=O)c2cc3ccccc3oc2=O)C2CCS(=O)(=O)C2)cc1OC (stereo unspecified)	inactive: -7.69%
CS(=O)(=O)c1ccc(NS(=O)(=O)c2ccc3ccccc3c2)cc1	inactive: -6.5%
O=C(CCCc1cccs1)Nc1nc(-c2ccc(F)cc2)cs1	inactive: 6.21%
Cc1ccc(NC2=C/C(=N/S(=O)(=O)c3cccs3)c3ccccc3C2=O)cc1	inactive: -17.4%
COc1ccc(CCn2cc(C#N)c(=O)[nH]c2=O)cc1OC	inactive: 2.09%
Cc1cccc(C)c1NC(=O)c1cccc(N2C(=O)C3CCC(C)CC3C2=O)c1 (stereo unspecified)	inactive: 22.4%
CCN1CCN(c2nc(-c3ccccc3)c3ccccc3n2)CC1	inactive: -0.091%
CC(C)c1nnc(NC(=O)C2CCCN2C(=O)Nc2cccc(Cl)c2)s1 (stereo unspecified)	inactive: -4.28%
CCC(=O)OCCNc1nc(-c2ccccc2)nc2ccccc12	inactive: 26.6%
COc1cccc(C(=O)COc2ccccc2N2C(=O)C3C4C=CC(C4)C3C2=O)c1 (stereo unspecified)	inactive: -1.46%
COc1ccc(Nc2nccc(N(C)C)c2C#N)cc1	inactive: 5.17%
Cc1ccc(C(=O)c2no[n+]([O-])c2C(=O)c2ccc(C)cc2)cc1	inactive: -93.9%

SMILES	growth rescue (activation)
COc1ccc(C(=O)NCC(=O)N2CCN(c3ccc(F)cc3)CC2)cc1	inactive: 9.61%
CC1(C(=O)NCc2ccco2)Cc2c(-c3cccc(C(N)=O)c3)ccnc2O1 (stereo unspecified)	inactive: 4.92%
CN1CCCN(C(=O)c2cc(-c3cccc4ccccc34)nc3ccccc23)CC1	inactive: -2.78%
CCOC(=O)C1CCN(C(=S)Nc2ccc(Cl)cc2C)CC1	inactive: 16.2%
CCOC(=O)C1CCN(C(=O)N(CC)CC)CC1	inactive: 15.9%
COc1ccc(CCC(=O)Nc2ccc(S(=O)(=O)Nc3nccc(C)n3)cc2)cc1	inactive: 12.8%
Cc1cc(Cl)ccc1OCC(=O)OCC(=O)Nc1ccc(F)c([N+](=O)[O-])c1	inactive: -13.9%
CCn1c(SCC(=O)NNC(=O)c2ccc(C)cc2)nnc1C1CC1	inactive: -4.44%
O=C1C2C(c3ccccc3)=NN(c3ccccc3)C2C(=O)N1c1ccccc1 (stereo unspecified)	inactive: 15.1%
COc1cccc(CNC(=O)c2ccc(N3CCOCC3)c([N+](=O)[O-])c2)c1	inactive: 11.3%
Cc1nc(C(=O)N(C)C)nn1-c1ccc([N+](=O)[O-])cc1	inactive: 6.8%
CSCCC(=O)Nc1cc(S(=O)(=O)N2CCOCC2)ccc1N1CCN(C)CC1	inactive: -10.8%
CCN1CCN(C(=O)C2CCCN(S(=O)(=O)c3ccc(OC)c(OC)c3)C2)CC1 (stereo unspecified)	inactive: 5.23%
CC(C)(C)NC(=O)COC(=O)c1ccc(F)cc1Cl	inactive: -1.07%
Cc1ccc(NC(=O)Cn2cnc([N+](=O)[O-])c2)cc1C	inactive: -10.8%
Cc1ccccc1NCC(=O)N/N=C/c1c(C)c(C(=O)c2ccc(Cl)cc2)n2ccccc12	inactive: 15.8%
CN(Cc1ccccn1)Cc1nc(COc2ccccc2)no1	inactive: 11%
CCOC(=O)c1ccc(NC(=O)Cn2nnc(-c3ccccc3F)n2)cc1	inactive: 27%
